The structures appear in SMILES notation. Screen size: about 150,000 compounds; about 540 (0.36%) showed an effect of 50% or more. The list shows a part of the results.

The assay deals with Plasmodium falciparum. The experiment in a line: Primary screen in NF54 nanoGlo assay, in single point, at 2uM, 72h; a lower Z score goes with more inhibition. The class given is functional, Erythrocyte. Particulars: timepoint 72 hour.
`CCn1cncc1Cn1cnc(-c2ccccc2)c1-c1nc2ccccc2n1C`: the “% Inhibition” value was 4% and the Z score is -0.48.
The matching figures for `CCC(=O)NCC(=O)N1CCC[C@H](C)c2ccccc21`: -4% and 0.4.
The matching figures for `Cc1cc(C(=O)NCc2ccco2)c2c(-c3ccccc3F)noc2n1`: 25% and -2.86.
Regarding `CN(C)c1noc(CN(CCC(N)=O)c2ccc(F)cc2)n1`, the “% Inhibition” value was -7% and the Z score stood at 0.67.
With `CC(=O)N(c1nc(CN[C@H]2CCCc3nn(C)cc32)cs1)C1CC1`, the “% Inhibition” value was -5% and the Z score is listed as 0.91.
The like results for `CC(NC(=O)C1COCCO1)c1ccc(F)cc1Cl` (stereo not drawn) were, in that order, -8% and 1.14.
The like results for `Cc1noc(C)c1C(C)C(=O)N1CCCC1C1CCCN1C` (stereo not drawn) were, in that order, -2% and 0.28.
The matching figures for `O=C1CCN(C(=O)c2ccoc2C2CC2)[C@H](c2ccccc2)C1`: 4% and -0.76.
Take `Cc1ccc(C[C@@H](CO)NCc2c(C3CC3)nc3sccn23)cc1`: the “% Inhibition” value is -3% and the Z score stood at 0.54.
The matching figures for `COc1cccc(C[C@]2(NC(=O)c3ccccc3)N=C3C(C)=CC=CN3C2=O)c1OC`: -12% and 2.33.
Consider `Cc1c(S(=O)(=O)c2ccc(Cl)cc2)c(N)n(C[C@H]2CCCO2)c1C`, for which the “% Inhibition” value is reported as -8% and the Z score worked out at 1.02.
The matching figures for `CCc1csc(CNC(=O)c2ccc(N3CC[C@H](COC)C3)nc2)n1`: -4% and 0.5.
Regarding `Cc1ccc(S(=O)(=O)[C@H](C(=O)N(C)C)C(C)C)cc1C`, the “% Inhibition” value was determined as 5% and the Z score was -0.83.
On to `CCNC(=O)c1ccc(N2CCC3(CC2)CNC(=O)O3)nc1`, for which the “% Inhibition” value was -3% and the Z score is 0.5.
With `Cn1cc(C(=O)C(=O)Nc2ccccc2N2CCc3ccccc32)cn1`, the “% Inhibition” value came out at 4% and the Z score is given as -0.71.
The like results for `O=C(c1cc(-c2ccc(O)cc2)nc2ccccc12)N1CCC1` were, in that order, -5% and 0.43.
For the molecule `COC1(CNC(=O)c2ccc(O)cc2F)CCC(C)CC1` (stereo not drawn), the “% Inhibition” value was -5% and the Z score came to 0.66.
Turning to `c1cncc(-c2noc([C@@H]3CCCN3Cc3cccs3)n2)c1`, the “% Inhibition” value was -13% and the Z score was determined as 1.39.
Turning to `CN(CCc1ccccc1F)C[C@H]1CCCN(S(C)(=O)=O)C1`, the “% Inhibition” value came out at 1% and the Z score is reported as -0.12.
The matching figures for `CON(C)C(=O)CNC(=O)c1ccc(F)cc1F`: -4% and 0.67.
The matching figures for `CCN(C)c1nc(-c2cccc(F)c2F)c2c(N)n(-c3ccc(OC)cc3)nc2n1`: 0% and 0.03.
The like results for `O=C(NCC[C@H]1CCOC1)c1ccc(C(F)(F)F)[nH]1` were, in that order, -6% and 1.18.
On to `COc1ccc(C2CN(C(=O)CC(C)C)CC2C(=O)NCc2ccc(F)cc2)c(OC)c1` (stereo not drawn), for which the “% Inhibition” value is on record as 0% and the Z score is recorded as 0.03.
As for `O=C([C@H]1CCCN(c2cnc3nccnc3c2)C1)N1CCN(C2CCCCC2)CC1`, the “% Inhibition” value was -3% and the Z score was 0.63.
The like results for `COc1ccccc1-n1nc(C)c(Cc2ccccc2Cl)c1O` were, in that order, 2% and -0.19.
With `CC(C)CNc1nc(-c2ccc(Cl)cc2)c2c(N)n(-c3ccccc3Cl)nc2n1`, the “% Inhibition” value was -8% and the Z score amounted to 1.14.
The matching figures for `O=C(CCn1cncn1)NC[C@@H]1COc2ccccc2C1`: -1% and 0.25.
The like results for `COc1ccccc1CN[C@H]1CC(C)(C)[C@@H]2C[C@@](C)(O)CC[C@]12CCC(=O)NCCN1CCOCC1` were, in that order, 1% and -0.13.
The like results for `O=C(CCc1ccc(=O)[nH]n1)N1CCC(N2CCc3ccccc3C2)CC1` were, in that order, -10% and 1.85.
Consider `N#CCN(CC#N)C(=O)COc1ccc(Cl)c(Cl)c1`, for which the “% Inhibition” value is -9% and the Z score was 1.79.
The like results for `Cc1nnc(NC(=O)CC2(N3Cc4ccccc4C3=O)CCOCC2)s1` were, in that order, -13% and 1.83.
The like results for `CCCN(Cc1c(-c2ccccc2)noc1N(C)C(C)C)C(=O)c1ccccc1OC` were, in that order, -5% and 0.67.
The like results for `COc1cc2c(cc1OC)[C@H](CNS(=O)(=O)c1ccc(C)cc1)N(Cc1ccc(F)cc1)CC2` were, in that order, 14% and -1.9.
Consider `CCS(=O)(=O)c1ccccc1N1CCN(CC(C)C)C(=O)C1`, for which the “% Inhibition” value is -10% and the Z score is recorded as 1.01.
The matching figures for `Cc1cnn([C@@H](C)C2CC2)c1NC(=O)NCc1cccc(C(=O)N(C)C)c1`: -9% and 1.29.
The like results for `Cc1ccc(NC(=O)Cc2c(C)nc3nc(-c4ccccc4Cl)nn3c2C)c(C)c1` were, in that order, -9% and 0.92.
In the case of `CC1CCCC1(O)CNC(=O)C1CC12CCN(C(=O)OCc1ccccc1)C2` (stereo not drawn), the “% Inhibition” value is -17% and the Z score is listed as 1.91.
The matching figures for `O=C(Cc1csc(NC(=O)c2ncccn2)n1)Nc1cccnc1`: -20% and 2.32.
The matching figures for `C[C@H]1CN(c2cccc(Cl)c2)C(=O)CN1C(=O)c1ccc2[nH]nnc2c1`: -5% and 0.81.
The like results for `Cc1csc2c(N3CCN([C@H]4CCCN(C)C4)CC3)ncnc12` were, in that order, -11% and 1.09.
For `COCCCN1CC(=O)N[C@@H]2CN(C(=O)C3CCOCC3)CC[C@@H]2OCc2cccc(c2)Oc2ccc(cc2OC)CCC1=O`, the “% Inhibition” value was -12% and the Z score turned out to be 1.52.
The like results for `N#Cc1cccc(N2CC(c3ccccn3)C2)n1` were, in that order, -10% and 1.94.
The matching figures for `O=C(N[C@@H](Cc1ccccc1)c1ccccn1)c1cnn2c1OCCC2`: -4% and 0.71.
The matching figures for `COc1ccc(CC(=O)NCc2ccc3c(c2)CCN3C(=O)c2ccc(C)cc2)cc1OC`: 1% and -0.12.
For the molecule `Cc1cc(N2CCC[C@H](CNC(=O)c3cn(C)nc3C)C2)ccn1`, the “% Inhibition” value is recorded as -16% and the Z score is recorded as 1.5.
The matching figures for `COc1cccc(-c2c(NC(=O)c3ccc(Cl)cc3)n(-c3ccccc3)nc(C)c2=O)c1`: 0% and 0.
The like results for `O=C1NCCN1CC1CCN(C(=O)c2n[nH]c3ccccc23)CC1` were, in that order, 2% and -0.21.
The matching figures for `Cc1nn(C)c(Cl)c1C(=O)N(C)C[C@H](C)C(=O)O`: -2% and 0.23.
As for `Cc1ccc(NS(=O)(=O)c2ccc(C(=O)N3C4CCC3CC(=O)NC4)cc2)cc1C` (stereo not drawn), the “% Inhibition” value is on record as -10% and the Z score came out at 1.49.
The like results for `O=C(Nc1ncccc1Br)c1c[nH]nn1` were, in that order, -1% and 0.15.
The like results for `COc1ccccc1[C@@H](NC(=O)OC(C)(C)C)C(=O)O` were, in that order, 13% and -1.48.
As to `CCc1csc(CC(=O)N2CC3COCC(C2)O3)n1`, the “% Inhibition” value was determined as 4% and the Z score is on record as -0.64.
The matching figures for `CC(C)Cc1nc(CNC(=O)C2CCCC2)no1`: 9% and -1.17.
The like results for `CC1CC2(CCCCC2)NC(C)c2ccccc21` (stereo not drawn) were, in that order, -3% and 0.45.
The matching figures for `Cc1nn2c(nc1=O)-c1ccccc1NC21CCCCCC1`: -11% and 1.88.
`Cc1cc(C(=O)NCCOCCn2ccnc2)no1`: the “% Inhibition” value is 0% and the Z score is listed as -0.01.
For the molecule `CCCN(CCC)S(=O)(=O)Cc1ccc(Cl)cc1C#N`, the “% Inhibition” value worked out at 15% and the Z score is on record as -1.73.
The matching figures for `CN(C(=O)CN1C(=O)c2ccccc2C1=O)c1nc2ccccc2o1`: 0% and 0.
The matching figures for `CC(C)Oc1ccc(C(=O)N2C3CCC2CN(Cc2ccccc2)C3)cc1`: -13% and 2.54.
The like results for `O=C(CC[C@H]1CCCCO1)N1CCOc2ccncc21` were, in that order, -1% and 0.11.
Turning to `O=C(NC1CCCCCCC1)[C@H]1CCS(=O)(=O)C1`, the “% Inhibition” value is 0% and the Z score is -0.03.
The like results for `C[C@@H](C1CC1)N(CCC#N)C(=O)c1ccc2c(c1)NC(=O)C2` were, in that order, 0% and -0.05.
The like results for `C=CCN(CC(=O)N(Cc1ccccc1)Cc1ccc(C)o1)S(=O)(=O)c1ccccc1` were, in that order, -6% and 0.71.
The matching figures for `CC(C)Cc1ccc(CN(C)C[C@H]2CCOC2)s1`: 3% and -0.62.
With `COc1ccc(CCC(=O)N2CCCCCNC(=O)[C@@H]3CCC[C@@H]32)cc1`, the “% Inhibition” value is listed as -6% and the Z score is on record as 1.02.
Consider `Cc1cccc(OCc2nc(-c3nonc3N)no2)c1C`, for which the “% Inhibition” value is on record as -10% and the Z score was determined as 1.34.
The matching figures for `CC(C)Cn1c(C(=O)N2CCCC2)nnc1N1CC[C@]2(CNC(=O)C2)C1`: 1% and -0.1.
The matching figures for `NC(=O)c1cnc(N2CCc3[nH]c4ccccc4c3C2)c(Cl)c1`: -20% and 3.08.
Consider `COCc1cc(O)nc(N=C(N)Nc2ccc(Oc3ccccc3)cc2)n1`, for which the “% Inhibition” value is recorded as -17% and the Z score turned out to be 2.18.
The matching figures for `CC(Oc1ccccc1)C(=O)Nc1cc(NC(=O)C(C)Oc2ccccc2)cc(C(=O)O)c1` (stereo not drawn): -8% and 1.06.
Turning to `Cc1cc(C)cc(NC(=O)CC(=O)NCC[C@H]2CCCN2C)c1`, the “% Inhibition” value is reported as 19% and the Z score is on record as -2.38.
The matching figures for `COCc1noc(CNc2nc(-c3ccco3)nc3c2CCNCC3)n1`: 3% and -0.63.
Regarding `COCc1noc(CN[C@H]2CCCC2(C)C)n1`, the “% Inhibition” value is recorded as -7% and the Z score was 1.04.
The like results for `COc1ccccc1CNC(=O)c1ccc2nc(-c3ccc(OC)c(OC)c3)c(-c3ccc(OC)c(OC)c3)nc2c1` were, in that order, 30% and -3.54.
The like results for `COc1cccc(-c2nc3ccc(-c4ccccc4)cn3c2CN2CCN(C(=O)c3cccc(F)c3)CC2)c1` were, in that order, 6% and -0.67.
As to `O=C(Nc1ccc2c(c1)OC1(CCCCC1)O2)c1ccc(F)cc1`, the “% Inhibition” value is -1% and the Z score is 0.08.
The like results for `C=CCN(C)c1nnc(C2CCCO2)n1CC1CCCCO1` (stereo not drawn) were, in that order, -21% and 4.09.
Regarding `N#CC1(C#N)[C@@H](C(=O)c2ccccc2)C12CCCCC2`, the “% Inhibition” value was -21% and the Z score is recorded as 2.65.
The matching figures for `CC1CCCC(C(=O)NCCCNCc2cccnc2)C1` (stereo not drawn): -7% and 0.7.
The like results for `CCC(C)C(OC)C(=O)N(C)c1ncccn1` (stereo not drawn) were, in that order, -7% and 1.39.
On to `COc1ccc2[nH]c3c(c2c1)CCN(C)C31CCN(C(=O)Cc2cccnc2)CC1`, for which the “% Inhibition” value is -4% and the Z score is recorded as 0.68.
For `Cc1ccc([C@H]2C[C@@H](O)[C@@H](O)[C@@H]2NS(C)(=O)=O)cc1`, the “% Inhibition” value is reported as -10% and the Z score is on record as 1.47.
The like results for `CC(C)n1cc(NC(=O)N2CCCC[C@@H]2CCc2ccccn2)cn1` were, in that order, -6% and 1.07.
The like results for `CCC[C@H](NC(=O)Cc1ccccc1OC)c1nnn[nH]1` were, in that order, 34% and -3.79.

These data come from ChEMBL document CHEMBL4888484, “Replenishing the malaria drug discovery pipeline: Screening and hit evaluation of the MMV Hit Generation Library 1 (HGL1) against asexual blood stage Plasmodium falciparum ,using a nano luciferase reporter read-out” (2022).
